Measurements: the supplement of paper PMC3334620
In all, about 33,000 sequences were measured (“E-score (-0.5 to 0.5)”: median about -0.017, highest 2% from about 0.3 on). The list shows a part of the results.

biological target: T1, Sut1 (UniProt P53032); experiment: PBM E-score (8-mer binding enrichment) (E-score (-0.5 to 0.5)); higher = stronger / more preferred TF binding; most listed sequences are background and not binding sites; settings: protein concentration: 200 nM; construct: GST-full length
T1 sequence: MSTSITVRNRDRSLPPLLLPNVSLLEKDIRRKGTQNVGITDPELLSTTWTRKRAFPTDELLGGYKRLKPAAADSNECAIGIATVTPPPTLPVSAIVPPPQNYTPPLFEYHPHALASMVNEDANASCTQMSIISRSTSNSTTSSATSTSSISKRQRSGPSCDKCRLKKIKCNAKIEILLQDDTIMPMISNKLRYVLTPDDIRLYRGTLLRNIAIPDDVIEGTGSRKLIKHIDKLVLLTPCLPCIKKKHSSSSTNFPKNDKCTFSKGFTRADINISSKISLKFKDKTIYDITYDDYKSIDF
Procedure: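 Universal 'all 10-mer' protein binding microarrays (Agilent AMADID 015681) probed with GST-tagged S. cerevisiae TFs (full-length or DBD) made by in vitro transcription/translation (PURExpress), about 100-200 nM. Bound TF was detected with fluorescent anti-GST. Each ungapped 8-mer (which stands for itself and its reverse complement) is scored by the PBM enrichment score (E-score), a modified Wilcoxon-Mann-Whitney statistic from -0.5 to +0.5, computed with the Universal PBM Analysis Suite. Scale: above 0.35 generally sequence-specific binding.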

Row | Sequence | PBM E-score
1 | AACCCCAT | -0.0232
2 | CAAGCACG | -0.0723
3 | GACTCCCC | -0.181
4 | AACCCCAC | -0.279
5 | GCGGCGTA | 0.00609
6 | AAGAATGA | 0.135
7 | GCGACAGC | -0.173
8 | AAGATGCT | 0.13
9 | ACTCCAGC | -0.0207
10 | CCAATCCA | -0.0273
11 | CCCGTCCG | -0.304
12 | AACCTTGT | -0.217
13 | CAGGGGTA | -0.334
14 | CGCTAGCG | -0.224
15 | CGGCCCAG | 0.0003
16 | CCTCGACG | -0.129
17 | ACCACTAG | -0.0972
18 | ACCGTCAT | -0.13
19 | TCTTCCCA | -0.189
20 | CAATTTTA | 0.234
21 | AGGGTTGG | -0.0796
22 | TACCGATA | 0.175
23 | AATTGTCT | -0.0132
24 | GCCTCAGA | -0.168
25 | CGAACTCC | 0.391

Row | Sequence | PBM E-score
26 | CAACCCCG | 0.355
27 | GCGGACAC | -0.102
28 | GCCTATAA | -0.0483
29 | AACCCAGC | -0.212
30 | AGAATTTG | 0.104
31 | GTGTCAAC | -0.221
32 | AAAGCTGG | -0.115
33 | CACAGTCG | -0.00255
34 | ATGCAACA | -0.104
35 | TATATCCA | 0.0641
36 | AACCAGGG | -0.129
37 | GTAGGAAA | -0.0355
38 | ATATATAC | 0.31
39 | AGCTCCCG | -0.173
40 | CATTCAAA | 0.217
41 | GCTCCGTA | 0.291
42 | CGCTGCAC | -0.281
43 | CTGTTAAA | 0.162
44 | GCCGTAAC | -0.118
45 | ACCAGGGG | -0.34
46 | AAATCGAG | 0.0584
47 | GGTTTGTA | 0.0988
48 | CGGCCTTC | 0.161
49 | CCATGTAC | -0.00338
50 | ACTAATAC | 0.294

Row | Sequence | PBM E-score
51 | GACCCACA | 0.00152
52 | ACAATTCG | 0.124
53 | AGATGTTC | -0.0198
54 | CGGCACAA | -0.115
55 | AAATCCGC | -0.0542
56 | CCGCCCGA | -0.0659
57 | ATACGAAA | 0.139
58 | CAAGCCAC | -0.278
59 | AGACCCTA | -0.0166
60 | ATTCAGCG | 0.0617
61 | AAATACGC | 0.183
62 | AAGTCTTC | -0.0836
63 | CATTTTTC | 0.117
64 | AACAATAC | 0.0474
65 | CAGGTATC | -0.105
66 | ATTACAAA | 0.272
67 | TCACCACA | -0.0523
68 | CAGACAGC | -0.104
69 | ACAAGAGC | -0.133
70 | GTGCGTAA | -0.0657
71 | AATTCCTG | -0.138
72 | ATGTATTG | 0.29
73 | AATGCGCA | 0.223
74 | AGTTACGG | 0.0959
75 | CTTCGCAC | -0.173

Row | Sequence | PBM E-score
76 | TGGAACAA | 0.0534
77 | GTCTCATA | 0.0188
78 | CGTAGGGC | -0.335
79 | AATTGACA | 0.128
80 | ACGCCGCA | -0.25
81 | TCCCTCCA | -0.248
82 | CATAGAAG | 0.104
83 | CAGCGGTA | -0.0702
84 | AGCCTAGA | -0.224
85 | CGAGAGCC | -0.161
86 | ACCTAAGT | 0.0986
87 | ATTGTCAA | -0.0624
88 | AACTAACC | 0.336
89 | ACGGGACT | -0.0468
90 | GATAAATC | 0.26
91 | CAGTTACC | -0.132
92 | AAAAGCGC | 0.131
93 | GAAATGGC | 0.0237
94 | TCATTCCA | 0.0304
95 | GTGCCGCA | -0.0409
96 | CAATGGCG | -0.0729
97 | TCGAGGCA | -0.0536
98 | AGCTCGAA | 0.171
99 | CATTCCTA | -0.00994
100 | ACTCCTTA | -0.0269

Row | Sequence | PBM E-score
101 | GCCCACAA | -0.174
102 | ACGGCACC | -0.125
103 | TCGAATCA | 0.0056
104 | AAGTATAA | 0.209
105 | CAGCCGGA | 0.276
106 | AATACTGC | 0.0484
107 | GTCGGGGA | 0.0429
108 | GACTCTGA | -0.0272
109 | ACTTACGC | 0.134
110 | CGCCCCCG | -0.0475
111 | TGGATGAA | 0.0547
112 | AAGGCCCC | -0.167
113 | GCAGGCGC | -0.169
114 | GCGCACGC | -0.13
115 | ATTCGAAC | 0.0762
116 | ACAATCAC | 0.135
117 | AGGGAGCC | -0.204
118 | CAATGGTA | 0.135
119 | CTGGCTAA | -0.101
120 | ACGAACAA | 0.234
121 | AATTAGGG | -0.121
122 | ACTGTGTC | -0.106
123 | CGGGGACG | -0.148
124 | GAAGAATA | 0.0886
125 | CACGCACA | -0.0675

Row | Sequence | PBM E-score
126 | GCCACACA | -0.0105
127 | AGTGTAAC | -0.0771
128 | CGGAGTAG | 0.49
129 | CCGAGGAG | -0.0382
130 | AGATAGCT | 0.0787
131 | ACGAGGCG | 0.0233
132 | GACAATTA | 0.113
133 | AAGAATAC | 0.105
134 | ATACTCGG | 0.0187
135 | TGCTCACA | -0.277
136 | AGTGTTTC | 0.00337
137 | AGTTGAAC | -0.061
138 | ATGCTGTG | -0.0226
139 | ATAACGTA | 0.195
140 | CACGAACA | 0.0574
141 | CATGTATA | 0.0763
142 | CGCCGGGA | -0.203
143 | GCGCTCCC | -0.261
144 | ATGTTTGA | 0.119
145 | TCCTGGCA | -0.111
146 | ATGAGTGG | 0.00025
147 | CCAAGGCC | -0.303
148 | GCTTAGAC | -0.227
149 | GCGAATCA | 0.103
150 | CCCCTGGA | -0.322

Row | Sequence | PBM E-score
151 | ACGCGCAT | -0.137
152 | CAATAAAG | 0.112
153 | TAAGAGCA | 0.0994
154 | AGCGAACA | -0.00025
155 | ACGATCGC | -0.0861
156 | TCCGTGAA | 0.271
157 | CTACTGGA | -0.165
158 | ACCCCCTA | -0.376
159 | CACTTGAG | -0.177
160 | GTAAAGGA | 0.0266
161 | AGGGACAA | -0.163
162 | AAATGATT | 0.311
163 | AGATATCC | 0.0562
164 | ATGTCAGA | -0.0898
165 | TCCTTGCA | -0.188
166 | AGCCCCCA | -0.424
167 | GTTTCGAA | 0.0889
168 | AGGTCTCG | -0.00502
169 | GCAGAACA | 0.0378
170 | GTACGAAC | 0.156
171 | ACCAACCG | 0.0755
172 | GCGAGGCC | -0.107
